Measurements: doi:10.1101/2023.06.21.545551 (2023)

Target: MYC(203–255) (human)
Test: NMR

Kd: 49 µM
B1: MYC([…]):MAX([…]) heterodimer (complex)
chain 1: not shown
chain 2: not shown
